# Source: publication PMC5892938
# This is one part of the list. The source does not settle which construct or isoform was used.
# Molecular target: GST-SBP-ILF3 (Homo sapiens) (UniProt Q12906)
# Assay: targeted RNA Bind-n-Seq
# Details: RBNS binding buffer: 25 mM Tris pH 7.5, 150 mM KCl, 3 mM MgCl2, 0.1% Tween, 0.5 mg/mL BSA, 1 mM DTT; 27 nM protein, 750 pM RNA pool; temperature not stated; high values mean tight binding; sequences stand for … in GGGUAAAAGCGAGGUGAA…CGGGACAAGUAUUAUGGG
row,Sequence,binding signal (log2 fold change)
1,UUUUUUUUUUGAGACUGGGCCAGUCUUCUA [tttttgagapaired],0.408
2,UUUUUUUUUUGAGAACGGCACGUUCUCCAG [tttttgagapaired],0.112
3,UUUUUUUUUUGAGAGCGACACGUUCUCCGG [tttttgagapaired],0.219
4,GUUGGUGGUGUUGGAGCCUAACACCAUCAA [gtspaired],-0.915
5,UUUUUUUUUUGAGAGGGCUCCCCUCUUCUG [tttttgagapaired],0.614
6,GUUGGUGGUGUUGGAGCCUAACACCGCCAG [gtspaired],-0.47
7,UUUUUUUUUUGAGAUCGAAACGGUCUCCUG [tttttgagapaired],0.255
8,UUUUUUUUUUGAGAGGGACGCCCUCUCCUG [tttttgagapaired],0.635
9,UUUUUUUUUUGAGAGCGGAGCGUUCUUCUA [tttttgagapaired],0.421
10,GUGUGGUGUGUUGGUCUCUAACACAUCACG [gtspaired],-0.641
11,UUUUUUUUUUGAGAGGGACUCCCUUUCCAG [tttttgagapaired],0.237
12,UUUUUUUUUUGAGAGGGGUACCCUCUCCUG [tttttgagapaired],0.675
13,UUUUUUUUUUGAGACGAGGAUAAUAAAAAA [ttttgagaunpaired],-0.345
14,UUUUUUUUUUGAGAUGGACGCCAUCUCCUA [tttttgagapaired],0.384
15,UUUUUUUUUUGAGACCGGUUCGGUCUCCAG [tttttgagapaired],0.199
16,GGUUGGUGUGUUGGCCUCUAACACAUCAAC [gtspaired],-0.272
17,UUUUUUUUUUGAGACUGAUUCAGUCUCCUG [tttttgagapaired],-0.104
18,UUUUUUUUUUGAGACCGAAACGGUCUUCUA [tttttgagapaired],0.25
19,UUUUUUUUUUGAGAACGAUGCGUUCUCCAG [tttttgagapaired],-0.0182
20,UUUUUUUUUUGAGACGGGAACUGUCUUCUA [tttttgagapaired],0.566
21,GUGUGGUGUGUUGGCACCUAACACACUAUA [gtspaired],-0.542
22,GGUGGUUGUGUUGGUGUCUAACACAGCUAC [gtspaired],-0.67
23,UUUUUUUUUUGAGACGGUGGCCGUCUCCUG [tttttgagapaired],1.04
24,UUUUUUUUUUGAGAGGGAAUCCCUCUCCUG [tttttgagapaired],0.258
25,UUUUUUUUUUGAGAGGGCUACCCUCUCCUA [tttttgagapaired],0.508
26,UUUUUUUUUUGAGAUCGUAGCGAUCUUCUG [tttttgagapaired],0.27

row,Sequence,binding signal (log2 fold change)
1,UUUUUUUUUUGAGAGGGUGUCCCUCUCCUA [tttttgagapaired],0.828
2,GUGUGUUGUGUUGGCAUCUAACACAACGCA [gtspaired],-0.418
3,UUUUUUUUUUGAGAUGGGCGCCAUCUCCUG [tttttgagapaired],0.55
4,UUUUUUUUUUGAGAGGGAACCCCUCUCCGG [tttttgagapaired],0.177
5,UUUUUUUUUUGAGAAGGCGUCCUUCUCCAG [tttttgagapaired],0.382
6,GGUGUUGGUGUUGGUCUCUAACACCGAUAC [gtspaired],-0.858
7,UUUUUUUUUUGAGAGCGUGACGUUCUCCGG [tttttgagapaired],0.295
8,UUUUUUUUUUGAGAGGGAAUCCCUUUCCAG [tttttgagapaired],-0.0117
9,UUUUUUUUUUGAGAUGGAGUCCGUCUCCGG [tttttgagapaired],0.594
10,UUUUUUUUUUGAGACUGUUCCAGUCUCCUG [tttttgagapaired],0.393
11,UUUUUUUUUUGAGAUGGUAUCCAUCUCCAG [tttttgagapaired],0.0113
12,GUGGUUGGUGUUGGCCUCUAACACCAGCCA [gtspaired],0.0214
13,GUGGUGUGUGUUGGUGUCUAACACAUACCG [gtspaired],-0.692
14,UUUUUUUUUUGAGAUGGUGACCAUUUCCAG [tttttgagapaired],0.492
15,UUCUCUCUUCCUCCGGCGGAGGAGGGGAGA [ctspaired],-0.243
16,UUUUUUUUUUGAGAGCGAUACGCUCUCCAG [tttttgagapaired],0.344
17,UUUUUUUUUUGAGACCGAGACGGUUUCCUA [tttttgagapaired],0.648
18,GGUGUGUGUGUUGGCCCCUAACACACAUAC [gtspaired],0.0603
19,UUUUUUUUUUGAGAGCGGCACGUUCUCCUG [tttttgagapaired],0.527
20,UUUUUUUUUUGAGAUGGAAGCUAUCUCCAG [tttttgagapaired],0.29
21,UUUUUUUUUUGAGACGGAGACCGUCUCCUG [tttttgagapaired],0.69
22,UUUUUUUUUUGAGAGCGUACCGUUCUCCAG [tttttgagapaired],0.61
23,GGUGUUGGUGUUGGUCUCUAACACCGACGC [gtspaired],-0.629
24,GUGGUUGGUGUUGGCUUCUAACACCGACUA [gtspaired],-0.811
25,GUGUGUGGUGUUGGAGCCUAACACCGCGCA [gtspaired],-0.524
26,UUUUUUUUUUGAGAUCGGGUCGAUCUCCAG [tttttgagapaired],0.201

row,Sequence,binding signal (log2 fold change)
1,UUUUUUUUUUGAGAGUGAAUCACUCUCCUA [tttttgagapaired],0.0482
2,GUGUGUUGUGUUGGCGCCUAACACAGCACG [gtspaired],-0.295
3,UUUUUUUUUUGAGACUGUGACAGUCUCCUG [tttttgagapaired],0.663
4,GUUGGUGGUGUUGGUAUCUAACACCGCCGA [gtspaired],-0.733
5,UUCUCUUCUCCUCCAAAGGAGGGGGAGGGA [ctspaired],-0.38
6,GUGUGUUGUGUUGGACUCUAACACAGCGCG [gtspaired],-0.567
7,GUUGGUGGUGUUGGAGUCUAACACCAUCAA [gtspaired],-0.525
8,UUUUUUUUUUGAGAGCGGUACGCUCUCCAG [tttttgagapaired],0.0221
9,UUUUUUUUUUGAGACCGACACGGUUUUCUA [tttttgagapaired],0.414
10,UUUUUUUUUUGAGAUGGGUGCCAUUUCCAG [tttttgagapaired],0.632
11,UUUUUUUUUUGAGACGGAGGCCGUUUCCGG [tttttgagapaired],0.855
12,UUUUUUUUUUGAGACGGGCACCGUCUCCUG [tttttgagapaired],0.511
13,UUUUUUUUUUGAGAUGGUGUCCAUCUCCAG [tttttgagapaired],0.481
14,UUUUUUUUUUGAGAUCGAGCCGAUCUCCUG [tttttgagapaired],0.403
15,UUUUUUUUUUGAGACCGGCACGGUCUCCUG [tttttgagapaired],0.615
16,UUUUUUUUUUGAGAUGGGUACCAUCUCCUA [tttttgagapaired],0.507
17,UUUUUUUUUUGAGAUCGGCGCGAUCUCCUG [tttttgagapaired],0.728
18,UUUUUUUUUUGAGACGGUAUCCGUCUCCUG [tttttgagapaired],0.541
19,UUUUUUUUUUGAGAGGGUACCCCUCUUCUA [tttttgagapaired],0.214
20,UUUUUUUUUUGAGAUGGUGGCCAUCUCCAG [tttttgagapaired],0.732
21,UUUUUUUUUUGAGAUGGGGGCCAUCUCCUA [tttttgagapaired],0.792
22,UUUUUUUUUUGAGACCGGACCGGUCUCCGG [tttttgagapaired],0.687
23,GUGUGUGGUGUUGGCUUCUAACACCACGCG [gtspaired],-0.476
24,UUUUUUUUUUGAGACGGGGUCUGUCUCCUG [tttttgagapaired],1.07
25,GUGUGUGGUGUUGGAUCCUAACACCGCAUA [gtspaired],-0.361
26,UUUUUUUUUUGAGAGGGUGCCCCUCUCCAG [tttttgagapaired],0.585

row,Sequence,binding signal (log2 fold change)
1,UUUUUUUUUUGAGAGGGCUCCCUUCUCCGG [tttttgagapaired],0.408
2,GUGUGGUGUGUUGGCUUCUAACACACUACG [gtspaired],-0.81
3,UUUUUUUUUUGAGACGGUAACCGUCUCCAG [tttttgagapaired],0.235
4,UUUUUUUUUUGAGACUGCAGCAGUUUCCAG [tttttgagapaired],0.746
5,UUUUUUUUUUGAGACCGGCACGGUUUCCUA [tttttgagapaired],0.364
6,UUUUUUUUUUGAGAGUGAAGCACUCUCCUA [tttttgagapaired],0.103
7,UUUUUUUUUUGAGAUGGUGUCCAUCUCCUA [tttttgagapaired],0.388
8,GUUGGUGGUGUUGGCACCUAACACCGCCGA [gtspaired],-0.547
9,GGUUGUUGUGUUGGAGCCUAACACAGCAAC [gtspaired],-0.256
10,GUGUGGUGUGUUGGUGCCUAACACAUCGCG [gtspaired],-0.582
11,UUUUUUUUUUGAGACCGACUCGGUCUCCAG [tttttgagapaired],0.388
12,UUUUUUUUUUGAGACCGUUUCGGUCUCCUA [tttttgagapaired],0.238
13,UUUUUUUUUUGAGAGGGACGCCCUCUCCGG [tttttgagapaired],0.666
14,GUGUGUUGUGUUGGUCCCUAACACAACGCA [gtspaired],-0.286
15,UUUUUUUUUUGAGAUGGAGUCCGUCUUCUA [tttttgagapaired],0.34
16,GGUGUUGGUGUUGGCUUCUAACACCGAUAC [gtspaired],-0.825
17,GUGUGUGGUGUUGGUAUCUAACACCACGCG [gtspaired],-0.484
18,UUUUUUUUUUGAGAUGGAGCCCAUCUCCUG [tttttgagapaired],0.564
19,UUUUUUUUUUGAGAUGGCAGCCAUCUCCGG [tttttgagapaired],0.524
20,GGUGGUUGUGUUGGUAUCUAACACAAUCGC [gtspaired],-0.377
21,UUUUUUUUUUGAGAGGGGCUCCCUCUUCUA [tttttgagapaired],0.748
22,UUUUUUUUUUGAGACUGUUCCAGUCUCCUA [tttttgagapaired],0.0435
23,UUUUUUUUUUGAGAUGGACCCCAUCUCCUG [tttttgagapaired],0.525
24,UUUUUUUUUUGAGAGCGUAACGCUCUUCUG [tttttgagapaired],0.164
